Assay results as given in PMC12136788.
This is one part of the list.

T1: UNK ZnF1-3 (human, UniProt Q9C0B0 31-174)
T1 sequence: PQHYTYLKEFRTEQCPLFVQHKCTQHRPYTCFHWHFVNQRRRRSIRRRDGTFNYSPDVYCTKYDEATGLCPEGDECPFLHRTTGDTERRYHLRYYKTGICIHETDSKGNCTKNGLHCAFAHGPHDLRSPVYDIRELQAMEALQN

B1: chr3:176767854:176767855:-_ENSG00000177565_ENST00000430069|hu_hu|hu_hu_hu_mus_False|8_58 (ssRNA)
RNA: GGGAGUUCUACAGUCCGACGAUCGACAUCCUUGUUACUGGGCACGUCCUGCCCUCCUUCCCGUAUGCAGUGUCUAAGUACUAACUGCGUAGGGCCACUCGUGCUGUUCUCACUGAGGUUCCAGAUUCUUGCUGUUGAGUCUCCCAACAGAGGAUUGAGCAUCA
B2: 168272914_168273034_492_CDS_ENSG00000130396_ENST00000400822|human|control|control (ssRNA)
RNA: GGGAGUUCUACAGUCCGACGAUCAUCAUCUUUAUCAGAUGCCUGUCGCAAUGCCUCUUUUUCUCUCUUCUUUUUUUCCUUCUUUUCUUUCUUUGAGAGAGUUCUCUUGAAGUUCUGGAUAACCCCUUCUUUUUCCUGCUUUUCCAACAGAGGAUUGAGCAUCA
B3: chr17:31789506:31789507:-_ENSMUSG00000061613_ENSMUST00000166526|mus_hu|motif|central (ssRNA)
RNA: GGGAGUUCUACAGUCCGACGAUCAGACUGGGAAGAGUUUUGAGGGUUACGGUAAAUGUUCAAGAGGGCAAUGGUCUGGCGGAACGUCGGUUUAUUGUGCAACCGAGAGCACCUGUCUCCAUGACGACAUGCUCCAAUUUUGAACAACAGAGGAUUGAGCAUCA
B4: chr4:76721835:76721836:+_ENSG00000138768_ENST00000264904|hu_mus|hu_hu_hu_mus_True|58_58 (ssRNA)
RNA: GGGAGUUCUACAGUCCGACGAUCGUUUGGCUGGGGUUUCUGAGACGCUCUGGAAUAUAACUCAUGUUUGCUAAUAAUCCUAGUUUCCUCUAUGAAAUUCUCUUUGCCAAUCCUCUUCUCUAUUAGUUGCUUUAGUUUCUCUUUCAACAGAGGAUUGAGCAUCA
B5: chr1:50642785:50642786:+_ENSG00000162374_ENST00000371827|hu_hu|motif|central (ssRNA)
RNA: GGGAGUUCUACAGUCCGACGAUCAGUGUUGAUGGCUUUCUCUGCAUCCUUUGGAUCAAUAUAGUUAACAAAUCCAUACCCGGAACUCUGUCCUGUAAUUUUGUCUCUCACAAGUUUGCAGGAUUCUAUUUCACCAAUGCUCCCCAACAGAGGAUUGAGCAUCA
B6: 5921728_5921951_1343_CDS_ENSG00000089195_ENST00000203001|human|control|control (ssRNA)
RNA: GGGAGUUCUACAGUCCGACGAUCCCUGAGGUUGAUGACCCCUCCCCUCUCCCGCAGUUUUGUGUAGCAUUCCAACAGAGGCUCUUUGUACUGACAGUAGACCACAAACGGCCUUGAAGGGGCCACAAAGUCCAGCAAAGACAGCAACAGAGGAUUGAGCAUCA
B7: 107480339_107480459_1678_CDS_ENSMUSG00000020721_ENSMUST00000106746|mouse|control|control (ssRNA)
RNA: GGGAGUUCUACAGUCCGACGAUCGACCCUGGUCAUCACCAGCCGUCCAGCCAAAGUGUCUUCCGAGAGGGUUUCAGUAAGCUUGAAACGACCAAAAAGUUGUCCAUUCUGAGCAUACUUUGCACCCCCAGAAACUCCAGUGAGCAACAGAGGAUUGAGCAUCA
B8: chr12:105553856:105553857:+_ENSG00000136051_ENST00000332180|hu_hu|motif|central (ssRNA)
RNA: GGGAGUUCUACAGUCCGACGAUCAAUUAUAUAGAAAUUUCGGAGAUGUAUAUUCUUUGGCCUUCGAAAUUCUGGAGCAAAAACGUCGGCAAGCAUUUUGAAAUAUUCUGUGCCUUCGGCAGAAUUUCGUGUGUGAUCACUGAGCAACAGAGGAUUGAGCAUCA
B9: chr6:40197388:40197389:+_ENSMUSG00000057716_ENSMUST00000061740|mus_mus|mus_mus_mus_hu_False|58_108 (ssRNA)
RNA: GGGAGUUCUACAGUCCGACGAUCGAGUUGUCAGUUUGGAUUUAUUCCACCUCUGUUUGGGUGCUAGCCACUAAGACAGCUAUUUUGGGAUUCAUGGCCUUGAAUAUCAAGAGGGAAAGGAAGAGGAUGGAAAGAGUCAAGAGUCAACAGAGGAUUGAGCAUCA
B10: chr12:70286429:70286430:+_ENSMUSG00000043998_ENSMUST00000060579|mus_hu|FALSE|FALSE (ssRNA)
RNA: GGGAGUUCUACAGUCCGACGAUCGCACUCUUGCUGCUUCAGUUUCCACAUCUUUUUGAAGACAUGGUAAAAGUCUGGGGCUAAGUAGUGAUCCUCUUCUAGGAAAAGUAUAAGGCCAGCAUAAUCUCGAAGAAUUUUCACUCUCAACAGAGGAUUGAGCAUCA
B11: 103177299_103180828_858_CDS_ENSG00000089902_ENST00000570597|human|control|control (ssRNA)
RNA: GGGAGUUCUACAGUCCGACGAUCUGCUCUAUUUUUAGCUUGUGUGCUAUGUUUUUCUUUUUUGACCUGAGGAACUGUCUCAGUAGGGGGAACCUCCUUUUUGCUUUCCUUGUUUUGAUCAACCUCAAUGUCAAUGGGAUUGUUCAACAGAGGAUUGAGCAUCA
B12: 129792727_129792847_1952_3pUTR_ENSG00000077684_ENST00000452328|human|control|control (ssRNA)
RNA: GGGAGUUCUACAGUCCGACGAUCCAUCACCACACCAUUUUUCUGUUGUGCUGAUAUGAGACGUGCUUCUGCAAAGGUCUUUUCUAAACCCAAAAAGCUCUCUGGGACCACCAUCCCCUCCCUUCUACCACACAGGUCUGGCUGCAACAGAGGAUUGAGCAUCA
B13: chr5:71490416:71490417:+_ENSG00000131711_ENST00000296755|hu_hu|motif|central (ssRNA)
RNA: GGGAGUUCUACAGUCCGACGAUCAUACUGCAUUUCCUUGCUGCUCUUGACUGGAUUAAGCACAUACAUCUCAAGUUUACCGGCUCCCAUUUUUUGGAAAAGAAUGACAGGAUCAAUAGUAUUGCCUACACUUCUAAACAGAGGCAACAGAGGAUUGAGCAUCA
B14: chr3:176740097:176740098:-_ENSG00000177565_ENST00000430069|hu_mus|hu_hu_hu_mus_True|18_68 (ssRNA)
RNA: GGGAGUUCUACAGUCCGACGAUCUGUUUUGUAUACCACAAAAGGAGGCACUUUCAGUAUCUGCAAAAGGUAUUUAAUCCUAAAACAUACUCACCUAGAGGAUAACUCAGGAAAACAUCAAUACAAUCUCUAAGACCUACUCCACAACAGAGGAUUGAGCAUCA
B15: chr11:18503389:18503390:-_ENSG00000074319_ENST00000251968|hu_hu|hu_hu_hu_mus_True|38_38 (ssRNA)
RNA: GGGAGUUCUACAGUCCGACGAUCAUUUUCCAUUUUCUCCAGAGCAGAACUUAGUUCUUCAUCCUUCUUUUUCAAAAGUUCUAUGUUUUUAUCAACUUCGGCUACUUCUUGAUCUAAGCGGGUGACCAUCUCUUCCAGUUUCUGCAACAGAGGAUUGAGCAUCA
B16: chr9:79618081:79618082:-_ENSMUSG00000032328_ENSMUST00000034878|mus_hu|FALSE|FALSE (ssRNA)
RNA: GGGAGUUCUACAGUCCGACGAUCGGUGCCUUAACUAAAGAGAAUGUGCAUACACAUUGCUAUUUGACCUAUAUGCAAAAGUGGAAUGAAAUACAUAGGAAAUUAAGGUUACUGCUUUCAAAAAUUUCUGGAAUAUUAGUACUUCAACAGAGGAUUGAGCAUCA
B17: chr3:71021771:71021772:-_ENSG00000114861_ENST00000475937|hu_mus|FALSE|FALSE (ssRNA)
RNA: GGGAGUUCUACAGUCCGACGAUCCACUGUCCAUACUGCCCCUUUAACGUUCUCUACUCGCACAAAACACUUGUGGAGACUAAGAUUAUGACGCACUGCAUUCUUCCACGUGGCUGCAUUGCGUCGGAAGUAAGCAAACAUUCGCAACAGAGGAUUGAGCAUCA
B18: 76668049_76668169_1430_3pUTR_ENSG00000089916_ENST00000261530|human|control|control (ssRNA)
RNA: GGGAGUUCUACAGUCCGACGAUCUGUGGCAUUUUAAAAAAUGUAGCAGUAGUUGCGUCUGUGGCUUUCUCUGCUGCAGAGGUCCUCACCAACCACUCAGAGCUGGGUGAUUUGGGGGCUUGUGAUGCUGGUGUGGUUGGCUCCCAACAGAGGAUUGAGCAUCA
B19: chrX:35985205:35985206:-_ENSMUSG00000048970_ENSMUST00000058265|mus_hu|motif|central (ssRNA)
RNA: GGGAGUUCUACAGUCCGACGAUCAGGAGCUUGUAGGUGAUGAUGCUCAUGGUGGUGCAUUCUAUUUCCAUGACCAAUCCGGAUGUGUCCUAGCAUAGUGAUCAAAGCACAGAAAAUGCUUCCAAGCAUCACACCCUUCAAAAACAACAGAGGAUUGAGCAUCA
B20: chr11:87793471:87793472:-_ENSMUSG00000020483_ENSMUST00000020775|mus_mus|mus_mus_mus_hu_False|18_108 (ssRNA)
RNA: GGGAGUUCUACAGUCCGACGAUCUGGGGGCUGGGGAAAAAGAAUAAGCUGGAUCCCCCACCCCCCCACAUUGUCAACCCUACACGAGAGUUUUGAAGGCGACUCAUGAAAAUCAGCCUCAAUUGGCGCAAUGACCACCCCACCCAACAGAGGAUUGAGCAUCA
B21: chr17:60770872:60770873:+_ENSG00000011028_ENST00000303375|hu_hu|hu_hu_hu_mus_True|28_108 (ssRNA)
RNA: GGGAGUUCUACAGUCCGACGAUCUCUCUUUUCUUUUAAAAAAAAAGACAAACAAUAAUAGCACAUUUCGAGAAUCAAGAACUACAAUAGAGGGUCCGCUUUGAGUUGUCCAUGUUCUCGUCCUGCACUGGGACACGGGGACUGCAACAGAGGAUUGAGCAUCA
B22: chr7:99593380:99593381:+_ENSMUSG00000052572_ENSMUST00000098308|mus_mus|motif|central (ssRNA)
RNA: GGGAGUUCUACAGUCCGACGAUCCUGGGGUGAGAAGGCUGCCCAACUCUAGGGCAGAGAGCCCAUCAGAGGUUCAUCCCGGUACCUGGUACUUUGAGCAAACCCAAGCCUUCCUGCAUACUGUGAUGUCUUUUCCGUCCCACCCAACAGAGGAUUGAGCAUCA

What follows are binders tested against T1, UNK ZnF1-3 (assay: nsRBNS (natural sequence RNA bind-n-seq); RBNS binding buffer (assumed for nsRBNS): 25 mM Tris pH 7.5, 150 mM KCl, 3 mM MgCl2, 0.01% Triton X-100, 500 ug/ml BSA, 20 U/ml SUPERase-In, 4 C; UNK is unkempt and MSI1 is Musashi-1; names of the RNAs are library labels; protein concentration not given here; high values mean tight binding).
With B1 the binding signal was 0.561 enrichment R.
For B2, the binding signal was 0.264 enrichment R.
With B3 the binding signal was 0.899 enrichment R.
Binder B4 has a binding signal of 0.433 enrichment R.
B5 was tested, and the binding signal was 0.633 enrichment R.
Binder B6 has a binding signal of 2.05 enrichment R.
B7 showed a binding signal of 0.585 enrichment R.
With B8 the binding signal was 1.35 enrichment R.
For B9, the binding signal was 1.71 enrichment R.
In the case of B10, the binding signal is reported as 0.894 enrichment R.
In the case of B11, the binding signal is reported as 0.248 enrichment R.
With B12 the binding signal was 0.812 enrichment R.
B13 showed a binding signal of 1.37 enrichment R.
Work on B14 yielded a binding signal of 0.907 enrichment R.
For B15, the binding signal was 0.347 enrichment R.
Work on B16 yielded a binding signal of 1.89 enrichment R.
Binder B17 has a binding signal of 0.783 enrichment R.
B18 gave a binding signal of 0.696 enrichment R.
Binder B19 has a binding signal of 0.672 enrichment R.
B20 was tested, and the binding signal was 1.24 enrichment R.
B21 showed a binding signal of 0.647 enrichment R.
With B22 the binding signal was 1.32 enrichment R.
